According to PubChem BioAssay AID624417 (National Center for Advancing Translational Sciences (NCATS), 2012):
About 6,400 (1.6%) of roughly 410,000 compounds were called active. This list was built around the results that the source calls inconclusive (neither active nor inactive); the mix of calls is not that of the screen. Calls come from the whole dose curve; as a rule, active = well fitted inhibition curve with a large enough effect; inconclusive = small, poorly fitted or top-dose-only effect; inactive = no such curve, though single readings can be large or run the other way. Potencies of inconclusive entries are doubtful fits and often do not repeat.

target: Glucagon-like peptide 1 receptor (Homo sapiens) (UniProt P43220); assay: qHTS of GLP-1 Receptor Inverse Agonists (Inhibition Mode); conditions: HEK293 GLP-1R CRE-luciferase, luminescence, 24 h, GLP-1R form is constitutively active; activity change, negative = inhibition: at 38.3 µM (top of the series) unless noted; note: nearly all actives have a fitted effect of over 55% in size
In short: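 Seeding at 200 cells/uL, 12 h culture, 24 hr compound treatment, then luciferase reagent and a luminescence read; cells are HEK293 stably expressing a constitutively active GLP-1R plus cAMP-responsive luciferase.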
% is set by controls: 0 for no effect and ±100 for the full control effect; potency is the fitted concentration of half-maximal effect; tags give direction and shape of the fitted curve.

Chain of UniProt P43220 (P43220 whole entry, looked up): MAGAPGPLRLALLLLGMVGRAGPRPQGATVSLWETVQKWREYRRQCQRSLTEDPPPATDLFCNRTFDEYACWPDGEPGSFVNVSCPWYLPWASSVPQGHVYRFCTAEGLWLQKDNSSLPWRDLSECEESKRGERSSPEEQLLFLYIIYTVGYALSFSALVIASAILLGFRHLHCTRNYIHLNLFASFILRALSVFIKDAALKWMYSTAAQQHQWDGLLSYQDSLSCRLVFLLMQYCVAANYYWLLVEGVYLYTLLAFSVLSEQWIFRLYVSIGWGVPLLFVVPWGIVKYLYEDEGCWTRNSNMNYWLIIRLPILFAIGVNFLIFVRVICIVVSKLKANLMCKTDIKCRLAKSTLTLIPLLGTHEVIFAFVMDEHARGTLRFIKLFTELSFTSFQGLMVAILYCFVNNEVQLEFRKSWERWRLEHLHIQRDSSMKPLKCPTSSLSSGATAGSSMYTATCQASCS

Activity change, negative = inhibition, inactive:
CCCCn1nnnc1C1(C)CCC(=O)N1CCOC (stereo not drawn) 7.53%
O=C(C[C@H]1C=C[C@@H](NC(=O)c2ccncc2)[C@@H](CO)O1)NCC1CC1 -2.07%
O=C(CCCn1c(=O)c2sccc2n(Cc2cccc(Cl)c2)c1=O)NCc1ccc2c(c1)OCO2 1.92%
CCN1C(=O)/C(=C/c2ccc(C)s2)NC1=S 2.82%

Potency, active:
O=C(CCN1C(=O)/C(=C/c2ccccc2)SC1=S)NCCc1ccc(O)cc1 5.01 µM
Clc1ccc(OC2CCN(Cc3nc(CC4CC4)no3)CC2)cc1 2 µM

Potency, inconclusive:
CCOc1ccc(Nc2cc(C)nc(-n3nc(C)cc3C)n2)cc1 1 µM [inhibitor, full curve, poor fit]
CCOc1ccccc1N1CCN(C(=O)c2cc(S(=O)(=O)N3CCCCC3)ccc2C)CC1 10 µM [inhibitor, partial curve]
Cc1ccc(C)c(N2CCN(C(=O)c3ccc4nc(N5CCOCC5)sc4c3)CC2)c1 8.91 µM [inhibitor, partial curve, poor fit]
Brc1ccc(-c2csc(/N=C/N3CCCC3)n2)cc1 11.2 µM [inhibitor, partial curve, poor fit]
C=CCc1c(OC)ccc2c1c(S(=O)(=O)c1ccc(C)cc1)cn2COC 28.2 µM [inhibitor, single point]
Cc1ccc(C(=O)c2c(NC(=O)CSc3nnc(N)s3)sc3c2CCCC3)cc1 22.4 µM [inhibitor, partial curve, poor fit]
CCOc1ccccc1N1CCN(C(=O)NCc2ccc(Cl)cc2)CC1 10 µM [inhibitor, partial curve, poor fit]
Cc1cc(N/N=C/c2ccccc2Cl)nc(NCc2ccccc2)n1 11.2 µM [inhibitor, partial curve, poor fit]
C=CCN(c1ccccc1)S(=O)(=O)c1cccc(C(=O)Nc2cccc(C)n2)c1 12.6 µM [inhibitor, partial curve, poor fit]
O=C(Nc1ccc(-c2nnn(CC(=O)N3CCN(C(=O)c4ccco4)CC3)n2)cc1)c1ccc(F)cc1 5.62 µM [inhibitor, full curve, poor fit]
Cc1cccc(-n2ncc3c(NCc4ccccc4)ncnc32)c1 2.82 µM [inhibitor, full curve, poor fit]
C=CCC1(CC=C)CCCN1C(=O)CC1C(=O)NCCN1Cc1cc(OC)cc(OC)c1 (stereo not drawn) 31.6 µM [inhibitor, partial curve, poor fit]
